Measured values taken from publication PMC11696576, “Next generation thiazolyl ketone inhibitors of cytosolic phospholipase A2 α for targeted cancer therapy” (Nature Communications, 2025).

How the values were obtained:
CD3+ T-cells = assay: viability of healthy T-cells, propidium iodide exclusion; format: cell-based; settings: Figure 6c, listed as AVX420
Description: Data are the mean ± stdev of 3 biological replicates. […] Data are the mean ± stdev of 3 biological replicates.
(§1) Propidium iodide exclusion was used to assess cell death by flow cytometry. After treatment, the cells were washed once with PBS and stained with 1.4 μg/mL propidium iodide (PI) for 5 min before quantification of PI negative and positive cells using a CytoFLEX flow cytometer (California, United States). An example of the gating strategy to assess PI staining can be found in Fig. S8c. […]
The propidium iodide exclusion assay was used to assess vi-ability of ungated PBMCs treated with AVX420 at the indicated doses for 24 hours .
(§2) Data are the mean ±stdev from 8 biological replicates (1-16 µM) and 5 biological rep- […]
(§3) iodide exclusion in CD3+ lymphocytes (T-cells). Cells appearing in the bottom right quadrant are PI-negative (live) T-cells while cells in the top right quadrant are PI-posi- […]
(§4) (1 picture or pasted object on this page, not shown here)

PBMCs = assay: viability of PBMCs (CTG and propidium iodide exclusion); format: cell-based, human; settings: PBMC 72H; 2 µM; rep1-5; listed as AVX420
Description: as §1
cells. a. CTG assays were used to assess viability of PBMCs isolated from human blood after treatment with vehicle control (DMSO) or AVX420 at the indicated doses for either (i) 24 hours or (ii) 72 hours. Data are the mean ±stdev of 4 or 5 biological replicates respectively. b. The propidium iodide exclusion assay was used to assess vi-ability of ungated PBMCs treated with AVX420 at the indicated doses for 24 hours .
as §2, §3, §4

SMILES: CCCCCCCOc1ccc(OCC(=O)c2nc(C(=O)OC)cs2)cc1 [GK420]
- PI Negative (CD3+ T-cells; 0.5 µM): 97 (2×), 98, 96, 91, 89 [columns of one line]
- PI Negative (CD3+ T-cells; 1 µM): 96, 98, 97 (2×), 91, 89 [columns of one line]
- PI Negative (CD3+ T-cells; 4 µM): 97 (2×), 98, 95, 96, 90, 89, 94 [columns of one line]
- PBMC viability relative to 0 µM = 100 (Figure S8a) (PBMCs): 111, 89, 93 (2×), 105 [columns of one line]

Not every entry of the source has a single result; some have several. The list is limited to them. There may be further records. The records of an entry seem to repeat one measurement; one of them may be the mean. Brackets with × stand for listed records that agree.
